Measurements from PubChem BioAssay AID651820 (National Center for Advancing Translational Sciences (NCATS), 2012).
The whole screen tested about 340,000 compounds, of which about 12,000 (3.5%) were called active. This list was built around the results that the source calls inconclusive (neither active nor inactive); the mix of calls is not that of the screen. Calls follow the shape of the dose curve; as a rule, active = well fitted inhibition curve with a large enough effect; inconclusive = small, poorly fitted or top-dose-only effect, or another doubt; inactive = no such curve, though single readings can be large or run the other way. Potencies of inconclusive entries are left out as doubtful fits.

Assay: qHTS Assay for Inhibitors of Hepatitis C Virus (HCV)
Conditions: Huh7.5.1 HCVcc-Cre (HCVcc is cell-culture hepatitis C virus) infection, luciferase reporter, 44 h; activity change, negative = inhibition: at 41.8 µM (top of the series) unless noted
In short: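 Infectious HCV cell culture screen: compound-treated cells (1,000/well, pre-plated 4 h) are infected with HCVcc-Cre at roughly 0.5 moi and grown 44 h. Infection is quantified by luciferase signal after 15 min substrate incubation at room temperature.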
% is scaled to controls: 0 for no effect and ±100 for the full control effect; potency is read from the fitted curve at half-maximal effect; tags tell the direction and shape of the fitted curve.

Structure (SMILES) | Potency | activity change, negative = inhibition
CNC(=S)N1N=C(c2cccs2)CC1c1ccc(F)cc1 (stereo unspecified) | inconclusive [inhibitor, single point] | 
O=S1(=O)[C@H]2C[C@H](CO)O[C@@]2(CO)CN1Cc1ccc(-c2cccc(Cl)c2)cc1 | inconclusive [inhibitor, partial curve] | 
COc1ccc(C2=NN(c3nc(-c4ccccc4)c(CC(=O)O)s3)C(c3ccco3)C2)cc1 (stereo unspecified) | inconclusive [inhibitor, partial curve] | 
CCNC(=S)N/N=C/c1ccc(OCC(=O)Nc2ccc(OC)cc2)c(OC)c1 | inconclusive [inhibitor, single point] | 
COC(=O)C1=C(C(=O)OC)SC2(S1)C(C(=O)OC)=C(C(=O)OC)SC1=C2c2cc(C)ccc2NC1(C)C | inconclusive [inhibitor, single point] | 
COc1ccc(CN(C)C(=O)c2[nH]c(C)c(C(C)=O)c2C)cc1F | inconclusive [inhibitor, partial curve] | 
O=C(Nc1ccc(S(=O)(=O)N2CCCC2)cc1)N1c2ccccc2Sc2ccccc21 | inconclusive [inhibitor, partial curve] | 
O=C(N/N=C\c1cc([N+](=O)[O-])ccc1N1CCCC1)c1ccccn1 | inconclusive [inhibitor, full curve] | 
COc1ccc(OC)c(-c2nc(CN3CCCCC3c3cccnc3)c(C)o2)c1 (stereo unspecified) | inconclusive [inhibitor, single point] | 
CC(C)c1ccc(Nc2nnc(SC3CCOC3=O)s2)cc1 (stereo unspecified) | inconclusive [inhibitor, single point] | 
O=C(C=Cc1cccnc1)c1ccccc1 | inconclusive [inhibitor, single point] | 
COc1ccccc1/C=N/Nc1cc(C)nc2ccc(C)cc12 | inconclusive [inhibitor, single point] | 
COc1ccccc1Nc1nc(-c2cccc([N+](=O)[O-])c2)nc2ccccc12 | inconclusive [inhibitor, single point] | 
O=C(CN(Cc1ccccc1Cl)C(=O)Cn1nnc(-c2cccs2)n1)NCC1CCCO1 (stereo unspecified) |  | inactive: 3.76%
COc1ccc(-c2nnc3sc(C4CCCCC4)nn23)cc1OC | inconclusive [inhibitor, single point] | 
CC(=O)c1cccc(N(CC(=O)NC2CCCCC2)C(=O)CCC(=O)Nc2nc(C)cs2)c1 |  | inactive: 2.42%
COc1ccc(S(=O)(=O)Nc2cccc3c2O[C@H](CN(C)C(=O)Nc2c(C)noc2C)[C@@H](C)CN([C@H](C)CO)C3=O)cc1 |  | inactive: -0.559%
COC(=O)c1ccc(CSc2nc3c(c(=O)n2-c2ccccc2)SCC3)o1 | inconclusive [inhibitor, single point] | 
Cc1ccc(S(=O)(=O)N(C)c2ccc(C(=O)N3CCN(Cc4ccc5c(c4)OCO5)CC3)cc2)cc1 | active: 4.47 µM | 
COc1ccc(-c2noc(C3CCCN(C(=O)Nc4ccccc4F)C3)n2)cc1 (stereo unspecified) | inconclusive [inhibitor, single point] | 
COc1ccc(CCN2CC(C(=O)NCCc3ccc(C(F)(F)F)cc3)CCC2=O)cc1 (stereo unspecified) | inconclusive [inhibitor, single point] | 
CCc1ccc(NC(=O)CCc2nc3cccnc3n2Cc2ccc(OC)cc2)cc1 | inconclusive [inhibitor, single point] | 

Structure (SMILES) | Potency | activity change, negative = inhibition
CC(=O)N(CCC(c1ccco1)C(C)C)Cc1ccc(Cl)cc1 (stereo unspecified) |  | inactive: 7.31%
O=C(Nc1ccccc1N1CCN(C(=O)c2ccc(Cl)cc2)CC1)c1ccc([N+](=O)[O-])o1 | inconclusive [inhibitor, partial curve] | 
Cn1c(=O)c2ncn(CC(=O)Nc3cccc(-c4nc5ccccc5s4)c3)c2n(C)c1=O | active: 10 µM | 
COc1ccccc1CC(=O)Nc1sc2c(c1C(N)=O)CCCC2 | active: 20 µM | 
Cc1cc(C(=O)CSc2nnc(-c3cccs3)n2Cc2ccccc2)c(C)n1C | inconclusive [inhibitor, single point] | 
COCCn1c(C)cc(C(=O)COC(=O)CCS(=O)(=O)c2ccc(C)cc2)c1C |  | inactive: 16.8%
COCCCNC(=O)CS(=O)(=O)Cc1nc(-c2cccc(OC)c2)oc1C |  | inactive: -1.59%
C/C(=C\c1ccccc1)C(=O)Nc1cc(C)on1 | inconclusive [inhibitor, single point] | 
COc1ccc(N2CCN(C(=O)c3ccc(N(C)S(=O)(=O)c4ccc(C)cc4)cc3)CC2)cc1 | inconclusive [inhibitor, single point] | 
CN(C)c1ccc(CNn2cnnc2SCc2ccccc2F)cc1 |  | inactive: -0.0007%
CCOC(=O)CSc1nc2ccccc2n2c(C)nnc12 | inconclusive [inhibitor, single point] | 
COC(=O)c1sc2ncccc2c1OCc1ccccc1Cl | inconclusive [inhibitor, single point] | 
CCOc1cc(-c2sc(Nc3ccccc3)n[n+]2-c2ccc(F)cc2)ccc1OC |  | inactive: 3.1%
COc1cc(NC(=O)c2sc3nc(C)nc(N4CCOCC4)c3c2C)cc(OC)c1OC | inconclusive [inhibitor, partial curve] | 
Cn1c2ccccc2c2nnc(SCCN3CCOCC3)nc21 |  | inactive: 3.29%
CCOC(=O)c1cc(C#N)c(SCC(N)=O)[nH]c1=O |  | inactive: 8.68%
Cc1ccc(NC(=O)C2CCN(S(=O)(=O)c3c(C)noc3C)CC2)cc1C | inconclusive [inhibitor, single point] | 
O=C(CNc1cccc(S(=O)(=O)N2CCOCC2)c1)N1CCc2ccccc21 | inconclusive [inhibitor, single point] | 
Cc1ccc(-n2ncc3c2CCCC3NC(=O)CCn2ccnc2C)cc1C (stereo unspecified) | inconclusive [inhibitor, partial curve] | 
CCOC(=O)/C=c1\s/c(=C\c2ccc3cc(OC)ccc3c2)c(=O)n1CC(=O)NCC1CCCO1 (stereo unspecified) | inconclusive [inhibitor, partial curve] | 
O=C(NC1CCCC1)c1ccc(CS(=O)(=O)Cc2ccccc2Cl)o1 |  | inactive: 5.25%
Cc1csc(NC(=O)C2CCCN(S(=O)(=O)c3ccc4c(c3)oc(=O)n4C)C2)n1 (stereo unspecified) | inconclusive [inhibitor, single point] | 

Structure (SMILES) | Potency | activity change, negative = inhibition
Cc1c(C(=O)N2CCCCC2)c(S(=O)(=O)NCCc2ccc(Cl)cc2)c(C)n1C |  | inactive: 0.134%
CN1CCc2c(sc3c2C(=O)NC(c2ccc(-c4ccc(Cl)cc4)o2)N3)C1 (stereo unspecified) |  | inconclusive: -75.2% [inhibitor]
CCNc1nc(N2CCCCC2)nc(-n2nnc(C(=O)OCC)c2C)n1 | inconclusive [inhibitor, partial curve] | 
Cc1c(C(=O)N2CC[C@@H](N3CCC(O)CC3)[C@H](O)C2)[nH]c2ccc(Cl)cc12 | inconclusive [inhibitor, single point] | 
COC(=O)c1ccc(/C=N/OCC(=O)NC2CCCC(C)C2C)cc1 (stereo unspecified) | inconclusive [inhibitor, single point] | 
Cc1ccc(/C=N/NC(=O)c2nn(C)cc2Cl)cc1 |  | inactive: 13.3%
COc1ccc(-c2nnc(SCc3nnc(-c4ccc(Cl)cc4)o3)n2-c2ccccc2)cc1 | inconclusive [inhibitor, single point] | 
CC(=O)N(\C=C/C=C/C=C1\Sc2ccccc2C1=O)c1ccccc1 | inconclusive [inhibitor, single point] | 
CC(CCc1ccc(O)cc1)NC(c1ccccc1)c1ccc(Cl)cc1 (stereo unspecified) | inconclusive [inhibitor, single point] | 
COC(=O)c1ccccc1NC(=O)C12CC3CC(C1)CC(n1cnc(Cl)n1)(C3)C2 | inconclusive [inhibitor, partial curve] | 
O=C(O)C1CCN(c2c([N+](=O)[O-])cc(C(F)(F)F)cc2[N+](=O)[O-])CC1 |  | inactive: 7.59%
CC(Oc1ccc2ccccc2c1)C(=O)NNC(=S)NC(=O)c1ccco1 (stereo unspecified) | inconclusive [inhibitor, partial curve] | 
CC(C)OCCCn1c(=N)c(C(N)=S)cc2c(=O)n3ccccc3nc21 | inconclusive [inhibitor, partial curve] | 
OC(c1cc(-c2ccc(C(F)(F)F)cc2)nc(C(F)(F)F)c1)C1CCCCN1 (stereo unspecified) | active: 5.01 µM | 
COc1ccc(N(C)C(=O)c2oc(=O)c3ccccc3c2-c2ccccc2)c(OC)c1 | inconclusive [inhibitor, single point] | 
O=S(=O)(c1ccc(OCC(O)CN2CCN(c3ccccc3Cl)CC2)cc1)N1CCOCC1 (stereo unspecified) | inconclusive [inhibitor, single point] | 
COc1cccc(/C=C/C(=O)OCC(=O)c2cc(C)n(CC3CCCO3)c2C)c1OC (stereo unspecified) | inconclusive [inhibitor, single point] | 
COc1cccc(OCc2cc(C3Nc4ccccc4C(=O)N3Cc3ccco3)ccc2OC)c1 (stereo unspecified) | inconclusive [inhibitor, partial curve] | 
CCOc1cccc(/C=N/NC(=S)Nc2cc(S(=O)(=O)N3CCOCC3)ccc2N2CCOCC2)c1O | inconclusive [inhibitor, single point] | 
O=C1CC(C2CCCO2)C(=O)N1c1cccc(Cl)c1 (stereo unspecified) | inconclusive [inhibitor, single point] | 
COc1ccc(C(=O)NC2CCc3ccccc32)cc1OC1CCN(C(C)C)CC1 (stereo unspecified) |  | inactive: -1.72%
CCOC(=O)N1CCC(NC(=O)CSCc2nc(-c3ccc(C)cc3)oc2C)CC1 | inconclusive [inhibitor, partial curve] | 
